The subject of this test is NCI-H322M lung. Nature of the test: NCI-60 cell line screen, 48 h.

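Each compound was tested at five concentrations against cells in 96-well plates for 48 hours. Here, GI50 denotes the concentration required for 50% inhibition of growth. The concentration for full growth arrest is given as TGI.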

In the case of `N/C(=N\c1nc2c(Cl)cc(Cl)cc2s1)C(Cl)(Cl)Cl`, the GI50 was 3.09 µM and the TGI is 12.8 µM.
In the same order, the values of `COc1ccc(C(=O)Nc2ncc(Cc3ccccc3Cl)s2)cc1` are 1 µM and 41 µM.
In the same order, the values of `O=C1[C@H]2Cc3c([nH]c4ccccc34)[C@@H](c3ccc(Br)cc3)N2C(=O)CN1C1CCN(CC2CCCCC2)CC1` are 16.8 µM and 32.7 µM.
In the same order, the values of `COc1ccc(-n2c(SCC(=O)Nc3ccc(-c4nc5ccccc5[nH]4)cc3)nc3ccccc3c2=O)cc1` are 17 µM and 58.8 µM.

For the origin of these results see PubChem BioAssay (NCI).
